{"source": "paper PMC7181131", "about": "“N-Pyrazinoyl Substituted Amino Acids as Potential Antimycobacterial Agents—the Synthesis and Biological Evaluation of Enantiomers” (Molecules, 2020)", "assay_in_all_cases": "microbe, parasite or virus in culture", "key": {"[1]": {"test_system": "Enterococcus faecalis CCM 4224 (ATCC 29212)", "settings": "24 h, read-out: MIC EF"}, "[2]": {"test_system": "Escherichia coli CCM 3954 (ATCC 25922)", "settings": "24 h, read-out: MIC EC"}, "[3]": {"test_system": "Acinetobacter baumannii DSM 30007, ATCC 19606", "settings": "24 h, read-out: MIC ACI"}, "[4]": {"test_system": "Pseudomonas aeruginosa CCM 3955 (ATCC 27853)", "settings": "24 h, read-out: MIC PA"}}, "data": [{"smiles": "O=C(N[C@H](CO)C(=O)O)c1cnccn1", "note": "[PC-D-Ser, (pyrazine-2-carbonyl)-D-serine]", "values": [{"measurement": "MIC", "setting": "[1]", "result": "> 500", "unit": "µM"}, {"measurement": "MIC", "setting": "[2]", "result": "> 500", "unit": "µM"}, {"measurement": "MIC", "setting": "[3]", "result": "> 500", "unit": "µM"}, {"measurement": "MIC", "setting": "[4]", "result": "> 500", "unit": "µM"}]}, {"smiles": "COC(=O)[C@@H](Cc1ccc(O)cc1)NC(=O)c1cnccn1", "note": "[PC-D-Tyr-Me, methyl (pyrazine-2-carbonyl)-D-tyrosinate]", "values": [{"measurement": "MIC", "setting": "[1]", "result": "> 500", "unit": "µM"}, {"measurement": "MIC", "setting": "[2]", "result": "> 500", "unit": "µM"}, {"measurement": "MIC", "setting": "[3]", "result": "> 500", "unit": "µM"}, {"measurement": "MIC", "setting": "[4]", "result": "> 500", "unit": "µM"}]}, {"smiles": "O=C(O)CNC(=O)c1cnccn1", "note": "[PC-Gly, (pyrazine-2-carbonyl)glycine]", "values": [{"measurement": "MIC", "setting": "[1]", "result": "> 500", "unit": "µM"}, {"measurement": "MIC", "setting": "[2]", "result": "> 500", "unit": "µM"}, {"measurement": "MIC", "setting": "[3]", "result": "> 500", "unit": "µM"}, {"measurement": "MIC", "setting": "[4]", "result": "> 500", "unit": "µM"}]}, {"smiles": "COC(=O)[C@@H](CC(C)C)NC(=O)c1cnccn1", "note": "[PC-D-Leu-Me, methyl (pyrazine-2-carbonyl)-D-leucinate]", "values": [{"measurement": "MIC", "setting": "[1]", "result": "> 500", "unit": "µM"}, {"measurement": "MIC", "setting": "[2]", "result": "> 500", "unit": "µM"}, {"measurement": "MIC", "setting": "[3]", "result": "> 500", "unit": "µM"}, {"measurement": "MIC", "setting": "[4]", "result": "> 500", "unit": "µM"}]}, {"smiles": "COC(=O)[C@@H](NC(=O)c1cnccn1)[C@@H](C)OC(C)(C)C", "note": "[PC-L-OtBu-Thr-Me, methyl O-(tert-butyl)-N-(pyrazine-2-carbonyl)-L-threoninate]", "values": [{"measurement": "MIC", "setting": "[1]", "result": "> 500", "unit": "µM"}, {"measurement": "MIC", "setting": "[2]", "result": "> 500", "unit": "µM"}, {"measurement": "MIC", "setting": "[3]", "result": "> 500", "unit": "µM"}, {"measurement": "MIC", "setting": "[4]", "result": "> 500", "unit": "µM"}]}, {"smiles": "COC(=O)[C@H](CC(C)C)NC(=O)c1cnccn1", "note": "[PC-L-Leu-Me, methyl (pyrazine-2-carbonyl)-L-leucinate]", "values": [{"measurement": "MIC", "setting": "[1]", "result": "> 500", "unit": "µM"}, {"measurement": "MIC", "setting": "[2]", "result": "> 500", "unit": "µM"}, {"measurement": "MIC", "setting": "[3]", "result": "> 500", "unit": "µM"}, {"measurement": "MIC", "setting": "[4]", "result": "> 500", "unit": "µM"}]}, {"smiles": "COC(=O)[C@H](CCSC)NC(=O)c1cnccn1", "note": "[PC-L-Met-Me, methyl (pyrazine-2-carbonyl)-L-methioninate]", "values": [{"measurement": "MIC", "setting": "[1]", "result": "> 500", "unit": "µM"}, {"measurement": "MIC", "setting": "[2]", "result": "> 500", "unit": "µM"}, {"measurement": "MIC", "setting": "[3]", "result": "> 500", "unit": "µM"}, {"measurement": "MIC", "setting": "[4]", "result": "> 500", "unit": "µM"}]}, {"smiles": "CCOC(=O)[C@@H](C)NC(=O)c1cnccn1", "note": "[PC-D-Ala-Et, ethyl (pyrazine-2-carbonyl)-D-alaninate]", "values": [{"measurement": "MIC", "setting": "[1]", "result": "> 500", "unit": "µM"}, {"measurement": "MIC", "setting": "[2]", "result": "> 500", "unit": "µM"}, {"measurement": "MIC", "setting": "[3]", "result": "> 500", "unit": "µM"}, {"measurement": "MIC", "setting": "[4]", "result": "> 500", "unit": "µM"}]}, {"smiles": "CCOC(=O)[C@H](Cc1c[nH]c2ccccc12)NC(=O)c1cnccn1", "note": "[PC-L-Trp-Et, ethyl (pyrazine-2-carbonyl)-L-tryptophanate]", "values": [{"measurement": "MIC", "setting": "[1]", "result": "> 500", "unit": "µM"}, {"measurement": "MIC", "setting": "[2]", "result": "> 500", "unit": "µM"}, {"measurement": "MIC", "setting": "[3]", "result": "> 500", "unit": "µM"}, {"measurement": "MIC", "setting": "[4]", "result": "> 500", "unit": "µM"}]}, {"smiles": "CCOC(=O)[C@@H](Cc1c[nH]c2ccccc12)NC(=O)c1cnccn1", "note": "[PC-D-Trp-Et, ethyl (pyrazine-2-carbonyl)-D-tryptophanate]", "values": [{"measurement": "MIC", "setting": "[1]", "result": "> 500", "unit": "µM"}, {"measurement": "MIC", "setting": "[2]", "result": "> 500", "unit": "µM"}, {"measurement": "MIC", "setting": "[3]", "result": "> 500", "unit": "µM"}, {"measurement": "MIC", "setting": "[4]", "result": "> 500", "unit": "µM"}]}, {"smiles": "C=C(NC(=O)c1cnccn1)C(=O)OC", "note": "[PC-MeAcr, methyl 2-(pyrazine-2-carboxamido)acrylate]", "values": [{"measurement": "MIC", "setting": "[1]", "result": "> 125", "unit": "µM"}, {"measurement": "MIC", "setting": "[2]", "result": "> 125", "unit": "µM"}, {"measurement": "MIC", "setting": "[3]", "result": "> 125", "unit": "µM"}, {"measurement": "MIC", "setting": "[4]", "result": "> 125", "unit": "µM"}]}, {"smiles": "COC(=O)[C@@H](NC(=O)c1cnccn1)[C@@H](C)O", "note": "[PC-L-Thr-Me, methyl (pyrazine-2-carbonyl)-L-threoninate]", "values": [{"measurement": "MIC", "setting": "[1]", "result": "> 500", "unit": "µM"}, {"measurement": "MIC", "setting": "[2]", "result": "> 500", "unit": "µM"}, {"measurement": "MIC", "setting": "[3]", "result": "> 500", "unit": "µM"}, {"measurement": "MIC", "setting": "[4]", "result": "> 500", "unit": "µM"}]}, {"smiles": "COC(=O)[C@H](NC(=O)c1cnccn1)[C@H](C)OC(C)(C)C", "note": "[PC-D-OtBu-Thr-Me, methyl O-(tert-butyl)-N-(pyrazine-2-carbonyl)-D-threoninate]", "values": [{"measurement": "MIC", "setting": "[1]", "result": "> 500", "unit": "µM"}, {"measurement": "MIC", "setting": "[2]", "result": "> 500", "unit": "µM"}, {"measurement": "MIC", "setting": "[3]", "result": "> 500", "unit": "µM"}, {"measurement": "MIC", "setting": "[4]", "result": "> 500", "unit": "µM"}]}, {"smiles": "COC(=O)[C@H](C)NC(=O)c1cnccn1", "note": "(racemic) [PC-DL-Ala-Me, methyl (pyrazine-2-carbonyl)alaninate]", "values": [{"measurement": "MIC", "setting": "[1]", "result": "> 500", "unit": "µM"}, {"measurement": "MIC", "setting": "[2]", "result": "> 500", "unit": "µM"}, {"measurement": "MIC", "setting": "[3]", "result": "> 500", "unit": "µM"}, {"measurement": "MIC", "setting": "[4]", "result": "> 500", "unit": "µM"}]}, {"smiles": "CCOC(=O)CC[C@H](NC(=O)c1cnccn1)C(=O)OCC", "note": "[PC-L-Glu-diEt, diethyl (pyrazine-2-carbonyl)-L-glutamate]", "values": [{"measurement": "MIC", "setting": "[1]", "result": "> 500", "unit": "µM"}, {"measurement": "MIC", "setting": "[2]", "result": "> 500", "unit": "µM"}, {"measurement": "MIC", "setting": "[3]", "result": "> 500", "unit": "µM"}, {"measurement": "MIC", "setting": "[4]", "result": "> 500", "unit": "µM"}]}, {"smiles": "COC(=O)[C@H](NC(=O)c1cnccn1)C(C)C", "note": "[PC-D-Val-Me, methyl (pyrazine-2-carbonyl)-D-valinate]", "values": [{"measurement": "MIC", "setting": "[1]", "result": "> 500", "unit": "µM"}, {"measurement": "MIC", "setting": "[2]", "result": "> 500", "unit": "µM"}, {"measurement": "MIC", "setting": "[3]", "result": "> 500", "unit": "µM"}, {"measurement": "MIC", "setting": "[4]", "result": "> 500", "unit": "µM"}]}, {"smiles": "COC(=O)[C@@H](NC(=O)c1cnccn1)C(C)C", "note": "[PC-L-Val-Me, methyl (pyrazine-2-carbonyl)-L-valinate]", "values": [{"measurement": "MIC", "setting": "[1]", "result": "> 500", "unit": "µM"}, {"measurement": "MIC", "setting": "[2]", "result": "> 500", "unit": "µM"}, {"measurement": "MIC", "setting": "[3]", "result": "> 500", "unit": "µM"}, {"measurement": "MIC", "setting": "[4]", "result": "> 500", "unit": "µM"}]}, {"smiles": "CCOC(=O)[C@@H](NC(=O)c1cnccn1)C(C)C", "note": "(racemic) [PC-DL-Val-Et, ethyl (pyrazine-2-carbonyl)valinate]", "values": [{"measurement": "MIC", "setting": "[1]", "result": "> 500", "unit": "µM"}, {"measurement": "MIC", "setting": "[2]", "result": "> 500", "unit": "µM"}, {"measurement": "MIC", "setting": "[3]", "result": "> 500", "unit": "µM"}, {"measurement": "MIC", "setting": "[4]", "result": "> 500", "unit": "µM"}]}]}
